Test results taken from PubChem BioAssay AID588579 (National Center for Advancing Translational Sciences (NCATS), 2011).
Out of some 400,000 compounds screened, about 2,200 (0.55%) were called active. The inconclusive results got no clear call from the source; some entries with a clear call stand among them for comparison. Calls follow the shape of the dose curve; as a rule, active = well fitted inhibition curve with a large enough effect; inconclusive = small, poorly fitted or top-dose-only effect, or another doubt; inactive = no such curve, though single readings can be large or run the other way. Where the call is inconclusive, the potency comes from a doubtful curve fit.

Target: DNA polymerase kappa (Homo sapiens) (UniProt Q9UBT6)
Assay: qHTS for Inhibitors of Polymerase Kappa
Conditions: purified Pol kappa, fluorescent DNA synthesis assay, 10 min; series mostly up to 107 µM
Description: The processing and repair of DNA interstrand crosslinks (ICL) in eukaryotic cells are extremely complex, potentially involving multiple DNA repair and damage tolerance pathways, including homologous recombination, nucleotide excision repair, translesion synthesis (TLS), and cell cycle checkpoints.
To that end, in a collaboration between the Oregon Health & Science University and the NIH Chemical Genomics Center a 1536-well high-throughput screen was developed. This fluorescent screen was assayed against the NIH Molecular Libraries Small Molecule Repository (MLSMR) to discover inhibitors of Pol Kappa.
NIH Chemical Genomics Center [NCGC]
NIH Molecular Libraries Probe Centers Network [MLPCN]
Assay Submitter (PI): Stephen Lloyd, Oregon Health & Science University
Three microliters of reagents (buffer in column 3 and 4 as negative control and 10 nM Pol kappa in columns 1, 2, and 5-48) were dispensed into a 1536-well black solid-bottom plate. Compounds (23 nL) were transferred via Kalypsys pin tool equipped with 1536-pin array. The plates were then incubated for 15 min at room temperature, and 1 uL substrate (50 nM final concentration) were then added to start the reaction and kinetically read twice at 0 min and 10 min on the Viewlux reader
Potency is read from the fitted curve at half-maximal effect; tags tell the direction and shape of the fitted curve.

UniProt Q9UBT6, sequence (Q9UBT6 whole entry, looked up): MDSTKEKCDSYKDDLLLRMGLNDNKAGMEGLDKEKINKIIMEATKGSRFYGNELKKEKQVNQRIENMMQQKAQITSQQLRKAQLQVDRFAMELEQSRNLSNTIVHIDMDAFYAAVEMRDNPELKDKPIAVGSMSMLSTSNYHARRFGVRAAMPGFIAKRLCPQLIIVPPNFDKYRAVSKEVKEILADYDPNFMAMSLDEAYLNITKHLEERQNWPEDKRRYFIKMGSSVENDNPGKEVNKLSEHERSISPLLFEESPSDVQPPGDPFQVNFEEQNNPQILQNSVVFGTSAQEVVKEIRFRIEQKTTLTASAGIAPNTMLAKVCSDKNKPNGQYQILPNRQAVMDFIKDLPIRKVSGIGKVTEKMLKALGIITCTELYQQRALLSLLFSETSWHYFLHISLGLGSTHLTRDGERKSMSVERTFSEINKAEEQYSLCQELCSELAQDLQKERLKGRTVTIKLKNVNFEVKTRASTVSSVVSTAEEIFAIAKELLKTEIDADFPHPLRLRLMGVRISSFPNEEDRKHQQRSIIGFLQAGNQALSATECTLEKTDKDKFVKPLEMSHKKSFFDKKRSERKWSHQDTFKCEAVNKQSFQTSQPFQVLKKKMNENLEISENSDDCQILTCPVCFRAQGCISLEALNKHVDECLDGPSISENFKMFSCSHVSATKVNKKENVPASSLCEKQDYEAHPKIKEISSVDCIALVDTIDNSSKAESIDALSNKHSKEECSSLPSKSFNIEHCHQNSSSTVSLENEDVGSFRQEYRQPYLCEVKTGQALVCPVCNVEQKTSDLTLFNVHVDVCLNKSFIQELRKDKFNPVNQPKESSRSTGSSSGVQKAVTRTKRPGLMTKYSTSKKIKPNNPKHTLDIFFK

Row | Compound | Potency
1 | O=C1NC2c3c(Cl)sc(Cl)c3C(=O)C2O1 (stereo not given) | inconclusive: 56.2 µM [inhibitor, partial curve, poor fit]
2 | CCc1ccc2nc(N(CCCN(C)C)C(=O)c3ccc(S(=O)(=O)N(C)C4CCCCC4)cc3)sc2c1 | inconclusive: 56.2 µM [inhibitor, partial curve, poor fit]
3 | COc1ccc(CNC(=O)CCN2C(=S)NC(C)(C)CC2C)cc1 (stereo not given) | inconclusive: 89.1 µM [inhibitor, single point]
4 | COc1ccccc1-n1c(=O)c2c3c(sc2n2c(=S)[nH]nc12)CCC3 | inconclusive: 100 µM [inhibitor, single point]
5 | Cc1nc2ccccc2c(=O)n1/N=C/c1ccc(O)c(O)c1O | inconclusive: 3.55 µM [inhibitor, full curve, poor fit]
6 | Cc1ccccc1C(=O)Nc1nnc(S(=O)(=O)N(C)Cc2ccc(Cl)cc2)s1 | inconclusive: 89.1 µM [inhibitor, single point]
7 | Cc1cc(-c2n[nH]c(=S)n2/N=C/C=C/c2ccco2)n[nH]1 | active: 89.1 µM
8 | O=C(CCCCCCCC(=O)NNC(=O)Nc1ccccc1)NNC(=O)Nc1ccccc1 | inactive
9 | Nc1nnnn1/N=C/c1ccccc1C(F)(F)F | inactive
10 | CCOc1ccc2c(c1)c(=O)c(C(=O)c1ccc(C)cc1)cn2Cc1ccccc1OC | inactive
11 | Cc1cccc(C(=O)OCc2cc(=O)n3nc(-c4cccs4)sc3n2)c1 | inconclusive: 89.1 µM [inhibitor, single point]
12 | COC(=O)c1ccc(C)c(NC(=O)CSc2sc3c(O)cc(=O)[nH]c3c2C#N)c1 | active: 22.4 µM
13 | O=C(CC1Nc2cccc3cccc(c23)NC1=O)Nc1ccc(F)cc1 (stereo not given) | inconclusive: 79.4 µM [inhibitor, partial curve, poor fit]
14 | Cc1ccc(-n2c(N)c(C#N)c(-c3ccccc3)c(C#N)c2=O)cc1 | inconclusive: 89.1 µM [inhibitor, single point]
15 | CCc1ccccc1NC(=O)CSc1ccsc1[N+](=O)[O-] | inconclusive: 100 µM [inhibitor, single point]
16 | COC(=O)c1cc(C)ccc1/C=C1/Cc2c(C)cc(C)cc2C1=O | inconclusive: 100 µM [inhibitor, single point]
17 | Cn1cccc1Cc1nnc(SCC(=O)NCc2ccco2)n1CCc1ccccc1 | inconclusive: 89.1 µM [inhibitor, single point]
18 | CN(C)c1ccc(/C=N/NC(=O)CCCO)cc1 | inconclusive: 100 µM [inhibitor, single point]
19 | CSc1ccc(C(c2c(C(=O)O)[nH]c3ccccc23)c2c(C(=O)O)[nH]c3ccccc23)cc1 | inconclusive: 79.4 µM [inhibitor, single point]
20 | CCN(CC)CCCNC(=O)CN1C(=O)COc2ccc(S(=O)(=O)N3CCC(C)CC3)cc21 | inactive
21 | CCOC(=O)c1c(NC(=O)CSc2nnc(-c3ccccc3C)n2C)sc(C(C)=O)c1C | inconclusive: 89.1 µM [inhibitor, single point]
22 | Cc1c(C(=O)N2CCN(c3ccccc3)CC2)oc2c(Cl)cccc12 | inactive
23 | CCc1cccc(NS(=O)(=O)c2cc(-c3cnc(C)o3)ccc2OC)c1 | inactive

Row | Compound | Potency
24 | O=C(N/N=C/c1cccs1)c1ccc2nc[nH]c2c1 | inactive
25 | O=C(CSc1n[nH]c(-c2ccccc2)n1)c1ccc(O)c(O)c1 | active: 25.1 µM
26 | O=C1NC2CCCCC2C(=O)N1OS(=O)(=O)c1ccccc1 (stereo not given) | inactive
27 | COc1ccc2c([N+](=O)[O-])c(Cl)[nH]c2c1 | active: 50.1 µM
28 | Cc1cccc(NC(=O)C2CC(=O)OC23CCCC3)c1 (stereo not given) | inconclusive: 79.4 µM [inhibitor, partial curve, poor fit]
29 | CS(=O)(=O)c1ccc(Cl)c(NC(=O)C2CC(=O)N(Cc3ccco3)C2)c1 (stereo not given) | inconclusive: 89.1 µM [inhibitor, single point]
30 | O=C(c1ccco1)N(CCC(c1ccccc1)c1ccco1)Cc1ccco1 (stereo not given) | active: 25.1 µM
31 | O=C(Nc1sc2c(c1C(=O)O)CCC2)c1ccccc1 | inconclusive: 89.1 µM [inhibitor, single point]
32 | O=[N+]([O-])c1ccc(Cn2cc(-c3cccc(C(F)(F)F)c3)nn2)cc1 | inconclusive: 100 µM [inhibitor, partial curve, poor fit]
33 | CCOc1ccc(NC(=O)CCS(=O)(=O)c2ccc3nc(C)sc3c2)cc1 | inconclusive: 100 µM [inhibitor, single point]
34 | COc1ccc(OC)c(NC(=O)CCn2c(=S)[nH]c3ccccc3c2=O)c1 | inactive
35 | Cc1cc([N+](C)(C)C)cc(C)c1/C=C/c1ccnc2ccccc12 | inconclusive: 56.2 µM [inhibitor, partial curve, poor fit]
36 | CCc1ccc(NC(=O)CSC2=Nc3ccccc3C3=NC(CC(=O)NCc4ccc5c(c4)OCO5)C(=O)N23)cc1 (stereo not given) | inactive
37 | COc1ccc(Cc2nnc(SCC(=O)NCc3ccco3)o2)cc1 | inconclusive: 89.1 µM [inhibitor, partial curve, poor fit]
38 | CCCCC(CC)CNC(=O)c1ccc2c(c1)OCO2 (stereo not given) | inactive
39 | CCc1cc(=O)oc2cc(C)c(CN3CCCCC3)c(O)c12 | active: 17.8 µM
40 | CSC1=N/C(=C\C=C\c2cccs2)C(=O)S1 | inconclusive: 100 µM [inhibitor, single point]
41 | NS(=O)(=O)c1cccc2c1c([N+](=O)[O-])cc1nc(O)c(O)nc12 | inactive
42 | Cc1cc(C=C2C(=O)c3ccccc3C2=O)c(C)n1-c1cccc(C(=O)O)c1 | inconclusive: 89.1 µM [inhibitor, partial curve, poor fit]
43 | COc1cc(/C=N/NC(=O)C(Cc2c[nH]c3ccccc23)NC(=O)OCc2ccccc2)cc([N+](=O)[O-])c1O (stereo not given) | inconclusive: 89.1 µM [inhibitor, single point]
44 | CCOc1nc(Nc2ccc(OC)cc2)nc(OCC)n1 | inconclusive: 89.1 µM [inhibitor, single point]
45 | O=C(NC1CCCCCC1)c1ccco1 | active: 89.1 µM
